Results as given in PubChem BioAssay (NCI).
More than one record can exist for a structure, and the calls need not agree.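 Method: cells in 96-well plates; compound added at one concentration; 48 h incubation; percent growth measured; values under 10 scored active.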 The source holds more than one record for some entries. The other results are left out here. There may be further records. These are repeated runs of one drug, at its own concentration, as given; each value is one run. Marks such as (2×) give the number of equal values in this list.

How the values were obtained:
[1] = test system: NCI-H522 lung; experiment: NCI-60 one-dose screen, 48 h (100 = growth as untreated, 0 = no growth, -100 = all killed); settings: 25 µM
[2] = test system: A549/ATCC NSCLC; experiment: as above; settings: 0.25 µM

With `COc1cccc2c1C(=O)c1c(O)c3c(c(O)c1C2=O)C[C@@](O)(C(=O)CO)C[C@@H]3OC1CC(N)C(O)C(C)O1` (stereo not given in full) the growth ([1]; runs of 1992) was “active: -93.6 (3×), -78.8, -89.6, -82.3, -65.3, -97.7, -80.7, -91.2 (3×), -98.7, -73.7, -87.8 (2×), -95.2 (2×), -99.1, -83.6 (2×), -96.5, -90.2 (2×), -99.5, -98.9, -86.3, -96.8 (2×), -88.1, -97, -91.4, -70.2, -77.4, -94.1 (2×), -75.6, -88.9, -94.4, -92.5, -95.9, -97.9, -98, -86.4, -100 (5×), -83.4, -93.7, -78.3, -79, -96.4, -84.6, -87.1, -92.2, -86.9, -74.2, -90.1, -93.8, -89.1 (2×), -87.6, -74.7, -85.6, -79.8, -96.3, -97.5, -98.6, -93.1, -79.7, -90.9, -53.2, -88.8, -81.7, -89.4, -87.9, -62.1, -77.9, -94.6 (2×), -90.5, -98.1, -93.4, -94.9, -92.9 (2×), -88, -72.4, -69.7, -73, -94.8, -95, -93.2 (2×), -96.6, -96.2, -99.6, -62.6, -94.7, -94.2, -99.9, -98.2, -81.1, -95.5, -98.8, -45.4, -62.7, -55.9, -84.2, -50.4, -91.5, -97.1, -21.9, -49.4, -95.3%”, the growth ([1]; runs of 1993) was “active: -92.7 (2×), -52.4, -62.5, -56.1, -99.6, -79.2, -60.8, -85.9, -71.6, -70.6, -77.6, -51, -59.6, -64.6, -53.1, -95.1, -61.3, -85.3, -76.4, -63.8, -79.4, -56, -72.2, -84.3, -58.2, -55.9, -84.8, -37, -99.4, -68.3, -71.8, -99.8, -68, -90.9, -59.9, -74.9, -92.1, -42.2, -96.8, -32.3, -91.7%” and the growth ([1]; runs of 1994) was “active: -57, -56.4, -49, -29.3, -86.3, -75.2, -39.9, -92.7, -80, -27.5, -95.8, -34.1, -53.5, -80.2, -47.5, -86.2, -100 (2×), -85.2, -61.7, -73.9, -98.1, -56.5, -31.8, -97.3, -61, -72, -94.6, -69.7, -65.4%”. The growth ([1]; runs of 1995) was “active: -56.8, -70.9, -80.3, -77.7, -68.6, -71.7, -74.3, -72.8, -74.5, -80 (3×), -52.8, -55.7, -63.1, -53, -90.9, -45.7, -72 (2×), -73.9, -87.5, -73.2, -89.8, -100 (2×), -38.4, -68.1, -77.6, -66.9, -76.7, -68.3, -68.5, -59, -40.2, -97.1, -25.7, -48.7%”, the growth ([1]; runs of 1996) was “active: -60.8 (2×), -75.4, -83.8, -32.7, -51, -92.5, -48.4, -70.2, -78.6, -59.8, -46.4, -94.3, -68.2, -35.9, -52.3, -96.1, -99.5, -31.3, -41.6, -67.9, -69, -84.4, -78.2, -23.7, -70.5, -75.9, -77, -93.9, -81.4, -53.9, -80.1, -93.6, -87.8, -90.5, -73.2, -64.2, -53.3, -42.9, -60, -48.5, -85.5, -65.3, -37.5, -66.9, -93.7, -93, -52.5, -70.3, -79.6% and inactive: 12.4%” and the growth ([1]; runs of 1997) was “active: -32.2, -39.2, -19.8, -74, -88.3, -57.9, -74.9, -92.6, -80.9, -54.7, -91.7, -59.3, -27.2, -74.1, -77.7, -75.4, -80.7, -96.4, -73.5, -44.6, -86.2, -73.2, -51.6, -52.3, -87.8, -98.3, -80, -88.5, -70.6, -76.1, -80.5, -94.4, -74.8, -78.6, -68%”. For the same compound, the growth ([1]; runs of 1998) was “active: -56.7, -79.1, -83, -39.1, 3.38, -74.6, -98.3, -10.5, -84.4, -23.2, -49.7, -47.3, -96.6, -90.4, -35.7, -33.6, -90.1, -93.8, -48.7, -52.2, -69.2, -90.7, -66.4, -34.6%”, the growth ([1]; runs of 1999) was “active: -100 (2×), -91, -73.2, -96.1, -65, -80.6, -66.8, -65.5, -25.9, -65.8, -4.71, -94.8, -66, -24.4%” and the growth ([1]; runs of 2000) was “active: -100%, -14.8%, -67.7%”. For the same compound, the growth ([2]; runs of 2006) was “inactive: 33.6% and active: -1.33%”, the growth ([2]; runs of 2007) was “inactive: 37.8, 49.1 (2×), 32.6, 44.6, 42.3, 35.9, 45.4, 40.1 (2×), 46.8, 44, 43.3 (2×), 44.5, 33.5 (2×), 41.6, 40.6, 37.7, 46.9, 42.8, 53.9, 52.7, 51.1, 47.6, 36.3 (2×), 48, 30.5, 38.1, 49.6, 42.7, 45.7, 60.9%” and the growth ([2]; runs of 2008) was “inactive: 40 (2×), 49.6, 33.6, 34.8, 47, 41.8, 50.1, 45.7, 40.1, 40.4, 50.3, 44, 57, 28, 36.3, 49.9, 50.7, 43.5 (2×), 26.2, 23.1, 37.6, 11.7, 39.9, 86.9, 38.6 (2×), 44.4, 32.3, 38.3, 44.2, 37, 32.9, 37.3, 36.9, 43.1, 37.7, 29.5, 42.6, 45.1, 50.4, 47.2, 44.6, 36.2, 46.2, 48, 42.2, 18, 30.2% and active: 9.14%”. For the same compound, the growth ([2]; runs of 2009) was “inactive: 52, 50.1, 45.6, 36.8, 36.3, 50.3, 57.5, 60.3, 49.5, 49.9, 45, 53.6, 50.4, 43.3, 46.7, 42.4, 46.2 (2×), 45.9 (2×), 42.8, 32.5, 35.6, 34.4, 38.7, 37.4, 42.5, 21, 42.6 (2×), 37.8, 36.2, 40.2 (2×), 51, 44.6, 22.4, 40.1, 32.7, 38.8, 38.1 (2×), 37 (3×), 42.3, 34.8, 34.3, 31.2, 40.8, 37.5, 27.3, 32.6, 30, 21.4, 33.3, 50, 43.1, 45.7, 28.8, 44.4, 40.4%”, the growth ([2]; runs of 2010) was “inactive: 37.7, 43.1, 36.6, 36.4, 44.3, 42.4, 44.5, 40.8 (2×), 45.6, 40.6 (2×), 40, 37.2 (3×), 34.6, 36.5 (2×), 33.8, 39.9, 37.6, 40.2, 41.6 (2×), 36.3, 28, 36.8, 42.7, 37.8, 45, 39.8, 41.7, 40.3, 11.6, 37.4, 38.6, 41.4, 35.4, 38.7, 35.6, 32.1, 40.7, 37.1%” and the growth ([2]; runs of 2011) was “inactive: 36.4 (2×), 33.3, 35.8, 40, 33, 22.2, 37.9, 33.6, 24.7, 36.2 (2×), 37.7, 37.5, 35.3 (2×), 38.6 (2×), 40.8, 40.4 (2×), 38.9, 39.3, 28.3, 41.3, 39.2, 33.7, 38.3, 42.3 (2×), 37.3, 34.2, 33.8, 33.2, 39.9, 31, 32.7, 28.2, 35.9 (2×), 33.1 (2×), 31.1, 31.2, 32.2, 29.7, 35.6 (2×), 36.8, 32.9, 37, 34.3, 34.4%”.
